According to the supplement of paper PMC4967469:
The IC50 comes from the fitted curve, where viability falls to half of the control; fits outside the tested doses are given as limits. For AUC the same curve is integrated over the 256-fold range of doses and scaled to a fraction; the more sensitive the line, the further below 1. The top dose, if marked as inferred, comes from the curve model; the source does not state it.

Legend:
Assay in all cases: Viability of human cancer cell lines after 72 h of drug (GDSC screen)
[1] = compound: CCN1CCN(Cc2ccc(NC(=O)c3ccc(C)c(Oc4ccnc5[nH]ccc45)c3)cc2C(F)(F)F)CC1 [NG-25]; conditions: top dose 10.24 µM; top dose inferred
Procedure: (§1)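 Human cancer cell lines in 384-well plates, medium with 10% serum, drug for 72 h over a 256-fold dose range (nine 2-fold or five 4-fold steps up to the top dose). Adherent lines were fixed and stained with the nucleic acid dye Syto60, suspension lines read with resazurin; signal relative to control wells, capped at 0 and 100%. One two-parameter sigmoid per drug and line, fitted in a mixed model over all curves with the slope shared within a line.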

[2] = compound: Cn1cncc1[C@@](N)(c1ccc(Cl)cc1)c1ccc2c(c1)c(-c1cccc(Cl)c1)cc(=O)n2C [Tipifarnib]; conditions: top dose 16 µM; top dose inferred
Procedure: as §1

[3] = compound: COc1ccccc1S(=O)(=O)Nc1ccc2c(c1)CN(C)C(=O)N2 [PFI-1]; conditions: top dose 10 µM; top dose inferred
Procedure: as §1

[4] = compound: CCc1cc(Nc2nccc(-c3c(-c4ccc(OC)c(C(=O)Nc5c(F)cccc5F)c4)nc4ccccn34)n2)c(OC)cc1N1CCC(N2CCN(S(C)(=O)=O)CC2)CC1 [GSK-1904529A]; conditions: top dose 1.024 µM; top dose inferred
Procedure: as §1

Cell Line	AUC [1]	IC50 [1] [µM]	AUC [2]	IC50 [2] [µM]	AUC [3]	IC50 [3] [µM]	AUC [4]	IC50 [4] [nM]
NB12 (neuroblastoma, adherent)	0.915	> 10.2	0.774	8.6	0.807	7.4	0.966	> 1020
KYSE-180 (oesophagus, adherent)	0.846	6.97	0.671	2.92	0.955	> 10	0.978	> 1020
SW756 (cervix, adherent)	0.967	> 10.2	0.803	9.79	0.917	> 10	0.973	> 1020
HuP-T4 (pancreas, adherent)	0.815	6.04	0.621	2.21	0.688	2.19	0.984	> 1020
TT2609-C02 (thyroid, adherent)	0.827	6.81	0.479	0.873	0.948	> 10	0.977	> 1020
CP50-MEL-B (melanoma, adherent)	0.842	7.1	0.787	6.87	0.856	7.91	0.98	> 1020
PCI-4B (head and neck, adherent)	0.887	> 10.2	0.519	1.12	0.729	2.69	0.96	> 1020
MDA-MB-453 (breast, adherent)	0.872	> 10.2	0.924	> 16	0.842	8.17	0.963	> 1020
Hs683 (glioma, adherent)	0.955	> 10.2	0.625	2.22	0.938	> 10	0.974	> 1020
NUGC-4 (stomach, adherent)	0.763	3.69	0.726	4.38	0.736	2.94	0.916	> 1020
Caov-4 (ovary, adherent)	0.783	6.66	0.833	> 16	0.903	> 10	0.968	> 1020
SK-N-AS (neuroblastoma, adherent)	0.977	> 10.2	0.857	> 16	0.816	6.65	0.975	> 1020
JIMT-1 (breast, adherent)	0.885	> 10.2	0.406	0.542	0.874	> 10	0.958	> 1020
A673 (rhabdomyosarcoma, adherent)	0.968	> 10.2	0.827	8.47	0.916	> 10	0.989	> 1020
OVTOKO (ovary, adherent)	0.879	> 10.2	0.629	2.5	0.711	2.93	0.978	> 1020
SW620 (large intestine, adherent)	0.959	> 10.2	0.409	0.58	0.927	> 10	0.989	> 1020
CHL-1 (melanoma, adherent)	0.783	4.06	0.471	0.837	0.705	2.28	0.969	> 1020
KYSE-150 (oesophagus, adherent)	0.965	> 10.2	0.686	3.23	0.974	> 10	0.987	> 1020
NCI-H2342 (lung adenocarcinoma, adherent)	0.962	> 10.2	0.396	0.501	0.959	> 10	0.879	> 1020
KMRC-20 (kidney, adherent)	0.963	> 10.2	0.905	> 16	0.955	> 10	0.956	> 1020
PANC-04-03 (pancreas, adherent)	0.947	> 10.2	0.698	5.12	0.875	> 10	0.957	> 1020
NCI-H661 (large cell lung carcinoma, adherent)	0.899	> 10.2	0.76	6.78	0.936	> 10	0.971	> 1020
42-MG-BA (glioma, adherent)	0.866	10.2	0.87	> 16	0.846	8.07	0.96	> 1020
KYSE-450 (oesophagus, adherent)	0.896	> 10.2	0.436	0.674	0.933	> 10	0.969	> 1020
GAMG (glioma, adherent)	0.811	5.76	0.711	4.09	0.914	> 10	0.978	> 1020
SK-OV-3 (ovary, adherent)	0.869	> 10.2	0.549	1.4	0.857	> 10	0.951	> 1020
NCI-H2227 (small cell lung carcinoma, semi-adherent)	0.91	> 10.2	0.981	> 16	0.825	7.1	0.986	> 1020
